These results are taken from article PMC4336329 (PLoS ONE, 2015).

The campaign covered roughly 310,000 compounds. About 2,200 (0.71%) showed an effect of 50% or more. The effect is printed as a negative number. The list shows a part of the results.

human ether-à-go-go-related gene (hERG) potassium channel, sequence (Q12809 whole entry, looked up): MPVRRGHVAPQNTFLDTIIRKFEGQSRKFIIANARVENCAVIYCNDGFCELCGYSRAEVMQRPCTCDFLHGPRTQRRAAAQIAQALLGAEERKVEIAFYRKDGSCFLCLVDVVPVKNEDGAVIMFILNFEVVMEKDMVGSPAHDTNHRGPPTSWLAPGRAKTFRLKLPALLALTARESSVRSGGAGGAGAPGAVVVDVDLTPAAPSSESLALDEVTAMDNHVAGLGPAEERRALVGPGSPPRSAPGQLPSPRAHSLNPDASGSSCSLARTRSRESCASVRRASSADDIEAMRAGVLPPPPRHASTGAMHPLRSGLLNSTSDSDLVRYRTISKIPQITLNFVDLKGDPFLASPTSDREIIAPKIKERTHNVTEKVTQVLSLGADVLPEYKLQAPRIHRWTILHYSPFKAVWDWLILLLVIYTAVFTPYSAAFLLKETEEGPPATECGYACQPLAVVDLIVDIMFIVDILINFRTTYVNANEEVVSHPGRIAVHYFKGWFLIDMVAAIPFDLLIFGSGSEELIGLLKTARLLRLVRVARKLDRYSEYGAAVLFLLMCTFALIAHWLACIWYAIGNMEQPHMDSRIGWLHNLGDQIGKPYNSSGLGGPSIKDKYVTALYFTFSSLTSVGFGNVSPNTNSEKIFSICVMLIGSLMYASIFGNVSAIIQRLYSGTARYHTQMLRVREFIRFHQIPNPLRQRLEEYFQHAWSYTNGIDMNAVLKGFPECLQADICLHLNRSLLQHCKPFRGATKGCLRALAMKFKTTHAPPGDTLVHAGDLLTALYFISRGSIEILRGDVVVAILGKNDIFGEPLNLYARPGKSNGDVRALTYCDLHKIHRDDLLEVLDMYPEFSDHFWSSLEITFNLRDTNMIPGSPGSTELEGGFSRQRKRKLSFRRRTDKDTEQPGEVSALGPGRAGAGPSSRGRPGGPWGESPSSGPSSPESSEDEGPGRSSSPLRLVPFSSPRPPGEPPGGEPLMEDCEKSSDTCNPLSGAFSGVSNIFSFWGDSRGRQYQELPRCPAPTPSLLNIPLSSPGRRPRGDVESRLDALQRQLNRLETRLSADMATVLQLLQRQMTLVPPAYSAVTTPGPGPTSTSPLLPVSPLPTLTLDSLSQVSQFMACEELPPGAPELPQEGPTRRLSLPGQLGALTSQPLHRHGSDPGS

The assay addresses human ether-à-go-go-related gene (hERG) potassium channel (human, UniProt Q12809). As to the kind of experiment: primary screen, population patch clamp on CHO cells stably expressing hERG.
As for `O=C(NNc1nc2ccccc2s1)c1ccccc1F`, the “hERG current change (%, negative = inhibition) at 1uM” value came to 7.39%.

As to `COc1ccc(CC(=O)NNC(=O)c2ccoc2C)cc1OC`, the “hERG current change (%, negative = inhibition) at 1uM” value was 6.03%. As for `Cc1cc2nc(C(F)(F)F)cc(-c3cccs3)n2n1`, the figure is 14.7%; as for `O=C(NCc1ccc(F)cc1)C(=O)NCC1OCCN1S(=O)(=O)c1cccs1` (stereo not drawn), 4.54%; as for `O=C(Cc1c(F)cccc1Cl)N1CCN(S(=O)(=O)c2cccc(F)c2)CC1`, 8.38%. As for `CCc1ccc(N2CC(C(=O)OCC(=O)Nc3ccccc3C)CC2=O)cc1` (stereo not drawn), the figure is 11.7%; as for `COc1ccc(CCNC(=O)c2ccc3c(c2)S(=O)(=O)N=C2CCCCCN23)cc1`, -6.9%.

With `N#C/C(=C(\O)c1ccco1)c1ccccn1`, the “hERG current change (%, negative = inhibition) at 1uM” value is recorded as 4.24%. Regarding `COc1ccc(-n2c(SC(C)C(=O)Nc3ncc(Cl)cc3Cl)nc3ccccc32)cc1` (stereo not drawn), the “hERG current change (%, negative = inhibition) at 1uM” value is reported as 8.24%. Take `CCCC(C(=O)NC1CCCC1)N(Cc1ccc(F)cc1)C(=O)c1snc(C(N)=O)c1N` (stereo not drawn): the “hERG current change (%, negative = inhibition) at 1uM” value is recorded as -12.5%. In the case of `Cc1ccnc(NC(=O)CCC(=O)N(CC(=O)NCc2ccc(F)cc2)c2cccc(F)c2)c1` it was 5.95%; in that of `N#Cc1ccc(CSc2nnc(NC(=O)CCc3nc4ccccc4c(=O)[nH]3)s2)cc1`, 17.3%; in that of `COc1ccc(N2CCN(C3CCCN(C(=O)CSC)C3)CC2)cc1` (stereo not drawn), 13.5%. In the case of `Cc1cccc(C)c1NS(=O)(=O)c1cc2c3c(c1)CCN3C(=O)CC2` it was -0.436%; in that of `Cc1ccc(S(=O)(=O)N(C)c2ccc(OCC(=O)NCc3ccco3)cc2)cc1`, -10.8%; in that of `CCCCC(CC)COC(=O)c1ccccc1C(=O)OCC(CC)CCCC` (stereo not drawn), 11.4%. With `O=C(CN1CCCc2ccccc21)NCCc1ccc(Cl)cc1`, the “hERG current change (%, negative = inhibition) at 1uM” value was determined as 0.996%.

In the case of `Cc1cc(C)n(CCC(=O)N2CCN(S(=O)(=O)c3ccccc3)CC2)n1`, the “hERG current change (%, negative = inhibition) at 1uM” value was 15.1%. In the case of `O=C(/C=C/c1ccccc1)NCCc1ccccc1` it was 9.78%; in that of `c1ccc(-n2nnc3ccccc32)nc1`, 10.6%.

Take `COc1ccc(Cl)cc1NC(=O)CN(C)C(=O)CCC(=O)c1cc(C)sc1C`: the “hERG current change (%, negative = inhibition) at 1uM” value is recorded as 9.57%.

For `C=CCN(C(=O)c1csnn1)C(C(=O)NC1CCCC1)c1ccc(F)cc1` (stereo not drawn), the “hERG current change (%, negative = inhibition) at 1uM” value stood at 10.4%. On to `C/C(=N\Nc1ccccn1)c1ccc2c(c1)OCO2`, for which the “hERG current change (%, negative = inhibition) at 1uM” value stood at 3.76%. In the case of `S=C1NC(c2ccccc2)=NCN1c1ccc(Br)cc1` it was 15.2%; in that of `C[C@H]1CC[C@H]2NCCN[C@H]2C1`, 9.98%. As for `Cc1ccc(S(=O)(=O)N2CCN(c3ccc(C(F)(F)F)cc3[N+](=O)[O-])CC2)cc1`, the “hERG current change (%, negative = inhibition) at 1uM” value came to 2.51%. As for `CCNc1nc(NCC)nc(N/N=C/c2ccc(O)c(O)c2)n1`, the “hERG current change (%, negative = inhibition) at 1uM” value turned out to be 5.39%.

As for `COc1cccc(N=Nc2c(=O)[nH]n3c(C)cc(C)nc23)c1`, the “hERG current change (%, negative = inhibition) at 1uM” value turned out to be 1.81%. Regarding `CC1(C)Cc2ccccc2C(=NCCCC(=O)O)N1`, the “hERG current change (%, negative = inhibition) at 1uM” value is given as 11.4%. In the case of `C=CCn1c(O)c(C(C)=Nc2cccc(C(F)(F)F)c2)c(=O)[nH]c1=O` it was 3.24%. In the case of `CCOC(=O)CNC(=O)N1c2ccccc2Sc2ccccc21` it was 9.47%; in that of `CCOC(=O)C1=C(C)Nc2nc(SCc3cccnc3)nn2C1c1ccc(OC)cc1` (stereo not drawn), 4.77%. As for `COC(=O)C1=C(C)N(C2CCCCC2)C(=O)/C1=C\c1cccs1`, the figure is 10.5%; as for `COc1cccc(C2CC(c3c(F)cccc3Cl)n3nc(N)nc3N2)c1` (stereo not drawn), 4.54%. Take `S=c1[nH]cnc2sc(Nc3ccccc3)nc12`: the “hERG current change (%, negative = inhibition) at 1uM” value is listed as 18%.

For `Cc1c(OC(C)C(=O)NCC2CCC(C(=O)O)CC2)ccc2c3c(c(=O)oc12)CCCC3` (stereo not drawn), the “hERG current change (%, negative = inhibition) at 1uM” value was determined as 12.7%.

For the compound `O=C1CC(c2ccccc2)CC(O)=C1C=NCCN1CCN(C(=O)Nc2ccccc2)CC1` (stereo not drawn), the “hERG current change (%, negative = inhibition) at 1uM” value is -9.19%.

Take `OCCCNC(=S)Nc1ccc2nccnc2c1`: the “hERG current change (%, negative = inhibition) at 1uM” value is 5.82%.

On to `COc1ccc(-c2cn(CCO)nc2-c2ccc(OC)cc2)cc1`, for which the “hERG current change (%, negative = inhibition) at 1uM” value was found to be 7.36%. Consider `O=C(NNS(=O)(=O)c1ccc(Br)cc1)c1cccs1`, for which the “hERG current change (%, negative = inhibition) at 1uM” value worked out at 9.77%.

As for `COc1cc2[nH]c(C(=O)N3CCC4(CC3)OCCO4)cc2c(OC)c1OC`, the “hERG current change (%, negative = inhibition) at 1uM” value was found to be 9.77%. Take `CCc1cccc2c(C#N)cn(CC(=O)NCCOC)c12`: the “hERG current change (%, negative = inhibition) at 1uM” value was found to be 5.64%. As for `O=C(Nc1c[nH]c(=O)[nH]c1=O)c1ccccc1Cl`, the figure is 16.5%. As for `Cc1cc(C)cc(OCC(=O)OCC(=O)Nc2cc(S(=O)(=O)N3CCOCC3)ccc2C)c1`, the figure is 8.4%; as for `N#CC1(NC(=O)COC(=O)c2nccnc2N)CCCCC1`, -1.63%; as for `O=C(O)c1ccccc1/C=N/Nc1ccc(S(=O)(=O)N2CCCC2)cc1[N+](=O)[O-]`, 11.9%. In the case of `CC(C)(C)NC(=O)NC(=O)CN1CCCCC1` it was 13.5%. Take `O=C(N/N=C/c1cccnc1)c1cc(-c2ccccc2OCc2ccccc2)n[nH]1`: the “hERG current change (%, negative = inhibition) at 1uM” value was 1.5%.

As to `COc1ccc(/C=N/n2cnc3c([nH]c4ccc(F)cc43)c2=O)cc1CN1CCCC1`, the “hERG current change (%, negative = inhibition) at 1uM” value is given as -12.4%. As for `COc1ccc(C)cc1NC(=O)COC(C)=O`, the “hERG current change (%, negative = inhibition) at 1uM” value was found to be 3.78%. In the case of `CCCc1c(C)nc(N2CCN(c3ccc(F)cc3)CC2)[nH]c1=O` it was 8.77%; in that of `O=C(CNC(=O)c1ccc(Cl)cc1)OCCCOC(=O)CNC(=O)c1ccc(Cl)cc1`, 6.89%. In the case of `NC(=O)C1CCCN(C(=O)c2cccc(S(=O)(=O)N(Cc3ccccc3)c3ccccc3)c2)C1` (stereo not drawn) it was -3.93%; in that of `O=[N+]([O-])c1cccc(NN=Nc2ccccc2)c1`, 14.2%; in that of `C=CCOc1ccc(/C=N/NC(=O)C(C)Sc2ccccn2)cc1OCC` (stereo not drawn), -6.14%. In the case of `CCOC(=O)Nc1ccc2c(CN3C(=O)NC(CC)(CC)C3=O)cc(=O)oc2c1` it was -1.2%; in that of `Cc1ccc(-c2nc(CS(=O)(=O)CC(=O)NCCN3CCCC3)c(C)o2)cc1`, 7.76%.

`COc1cc(C2Nc3cc(C)c(C)cc3NC3=C2C(=O)CC(C)(C)C3)ccc1OC(C)=O` (stereo not drawn): the “hERG current change (%, negative = inhibition) at 1uM” value is given as 13.6%. As for `C=CCn1c2ccccc2c(=O)c2cc(C#Cc3ccsc3)ccc21`, the figure is 4.34%. In the case of `CCCN1CCN(C(=O)c2ccc(F)c(S(=O)(=O)N3CCOCC3)c2)CC1.Cl` it was 9.97%; in that of `O=C(Nc1ccc(S(=O)(=O)Nc2nccs2)cc1)C1CCCCC1`, -4.32%. Regarding `COc1ccc(CNC(=O)c2cc3cccc(OC)c3oc2=N)cc1`, the “hERG current change (%, negative = inhibition) at 1uM” value was found to be 11.6%. Turning to `COc1ccc(N2CC2c2ccncc2)cc1` (stereo not drawn), the “hERG current change (%, negative = inhibition) at 1uM” value came to 25.2%. For the compound `Cc1ccc(S(=O)(=O)N(C)Cc2ccc(C(=O)N/N=C3\CC(=O)CC(C)(C)C3)cc2)cc1`, the “hERG current change (%, negative = inhibition) at 1uM” value is -1.36%.

On to `COc1ccc(OC)c(CCNC(=O)CC2Oc3ccccc3NC2=O)c1` (stereo not drawn), for which the “hERG current change (%, negative = inhibition) at 1uM” value was -2.47%.

With `COC(=O)c1cc(=O)n(Cc2ccc(OC)c(OC)c2)c(=Nc2ccc(F)cc2)s1`, the “hERG current change (%, negative = inhibition) at 1uM” value was determined as 10%. Consider `Cc1nn(CSc2c(F)c(F)c(F)c(F)c2F)c(C)c1[N+](=O)[O-]`, for which the “hERG current change (%, negative = inhibition) at 1uM” value was determined as 11.2%. As for `COc1cccc(CNC(=O)C2CCN(S(=O)(=O)c3cnc[nH]3)CC2)c1`, the figure is 9.74%; as for `COc1cc([N+](=O)[O-])ccc1NC(=O)Nc1ccc(C(=O)N2CCCC2)cc1`, -8.5%; as for `Cc1ccc(C)n1-c1nn(S(=O)(=O)c2cccc3cccnc23)c2cccc(F)c12`, 15%.

As to `OCCN(CC#CCn1c2ccccc2c2ccccc21)CCO`, the “hERG current change (%, negative = inhibition) at 1uM” value came to 11.4%.

`NC(=O)c1ccc(N2CCCCC2)c(N2C(=O)CCC2=O)c1`: the “hERG current change (%, negative = inhibition) at 1uM” value is reported as -11.5%. Consider `COc1ccc(-c2noc(CCCC(=O)NC3CCCCC3)n2)cc1OC`, for which the “hERG current change (%, negative = inhibition) at 1uM” value was 19.7%. `CSc1n[nH]c(NC2=CC(=O)CCC2)n1`: the “hERG current change (%, negative = inhibition) at 1uM” value was 15%. On to `O=C1c2cccnc2C(=O)N1Cc1ccc(S(=O)(=O)N2CCOc3ccc(Cl)cc32)cc1`, for which the “hERG current change (%, negative = inhibition) at 1uM” value is on record as 17.4%.

For `O=C(c1ccccc1F)N1CCN=C1c1ccccc1`, the “hERG current change (%, negative = inhibition) at 1uM” value worked out at 9.15%. As to `COc1ccc(Nc2n[nH]c(C)c2[N+](=O)[O-])cc1`, the “hERG current change (%, negative = inhibition) at 1uM” value amounted to 14.7%. In the case of `CCP(=O)(CC)c1cccc(N)c1` it was 2.05%; in that of `Cc1cc(Cl)c(S(=O)(=O)NCCC(=O)O)cc1OCC(N)=O`, 10.5%; in that of `CCOC(=O)c1cccc(NC(=O)CNC(=O)C2CCCCC2)c1`, 7.91%. `COc1ccc(-n2nnnc2SCC(=O)NC2CC2)cc1`: the “hERG current change (%, negative = inhibition) at 1uM” value came to 9.5%. Take `O=C(NC1=NCCS1)c1sc2cc(F)ccc2c1Cl`: the “hERG current change (%, negative = inhibition) at 1uM” value turned out to be 18.9%. With `CCn1cc([N+](=O)[O-])c(C(=O)N2N=C(c3ccc4ccccc4c3)CC2c2cc(Br)ccc2O)n1` (stereo not drawn), the “hERG current change (%, negative = inhibition) at 1uM” value turned out to be 11.1%. Consider `NC1=NC[C@H](Cc2ccc(O)cc2)N1CC1CCCCC1`, for which the “hERG current change (%, negative = inhibition) at 1uM” value is recorded as 13.1%. In the case of `O=C(C[n+]1ccccc1)N/N=C/c1cc(Br)ccc1O.[Cl-]` it was 12.4%; in that of `CC1(C)CC(=O)C(Sc2nnc(-c3ccc(O)cc3)n2CC2CCCO2)C(=O)C1` (stereo not drawn), 19.4%.

Consider `C(=N\NC1=NCCN1)/c1ccncc1.Cl`, for which the “hERG current change (%, negative = inhibition) at 1uM” value was 8.57%. With `CN(C(=S)NC(=O)Cc1ccccc1)c1ccccc1`, the “hERG current change (%, negative = inhibition) at 1uM” value is reported as 8.53%. In the case of `CC(C)(C)C1(c2ccccc2)NC(=O)N(CC(=O)N2CCOCC2)C1=O` (stereo not drawn), the “hERG current change (%, negative = inhibition) at 1uM” value is listed as -6%.

Turning to `COc1ccc(CC[NH+](C)CCCN2CC(c3ccccc3)CC2=O)cc1OC.O=C([O-])C(=O)[O-]` (stereo not drawn), the “hERG current change (%, negative = inhibition) at 1uM” value is -61.9%.
